Measured values reported in the supplement of paper PMC3724861.
The list shows a part of the results.

These sequences were tested on T1, Caupolican (Caup) homeodomain DNA-binding domain (assay: PBM E-score (8-mer, recovered from the published 9-mer minima) (E-score (dimensionless, -0.5 to 0.5)); Drosophila protein; higher = stronger relative binding preference, active = 0.31 or more).
T1 sequence: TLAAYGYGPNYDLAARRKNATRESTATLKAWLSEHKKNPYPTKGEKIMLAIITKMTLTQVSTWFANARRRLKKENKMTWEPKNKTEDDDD
Procedure, shortened: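 Caup's homeodomain DNA-binding domain (residues 214-303) was produced by in vitro transcription and translation and applied at 100 nM to custom-designed protein binding microarrays. Each value is an enrichment score giving relative binding preference for a short DNA word; higher means stronger. Published 9-mer scores were the minimum of their two constituent 8-mer scores, and the 8-mer values were recovered from those minima. A cutoff of 0.31 marks candidate binding sequences.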

Sequence | PBM E-score
CAACTGCA | inactive: 0.0747
AAATACAC | active: 0.312
GCGGAACA | inactive: 0.133
GGGCGACC | inactive: -0.298
CGGTGAAC | inactive: 0.0357
ACGTCACA | ≥ 0.089
CACGTCTG | inactive: 0.0121
CAGCTAGG | inactive: -0.046
CGATATAG | inactive: 0.0674
AAGACCGG | inactive: -0.0352
AGGGTTAG | inactive: 0.00071
CGGACTCC | inactive: -0.179
GTCGTCCA | inactive: 0.0521
ACATATGA | inactive: 0.284
CTTTCAAC | inactive: -0.013
AACCTTGC | inactive: -0.0448
CGATAAAA | inactive: 0.0273
ACCCTTAC | inactive: 0.00177
CCTCAGGC | inactive: -0.259
CCGGCCTA | inactive: -0.181
CTTCTATC | inactive: -0.076
AAGCCAGC | inactive: -0.0993
ACCACTCA | inactive: 0.0766
CCGCATTC | inactive: -0.0832
CCTCGCCC | inactive: -0.139

Sequence | PBM E-score
ATACTGTG | inactive: 0.122
ATTACTCG | inactive: 0.12
ATCATTAC | inactive: 0.154
ATAGTCGC | inactive: 0.0239
CAACCCTA | inactive: -0.00252
ATGTGAGA | inactive: 0.151
CGTGGCTC | inactive: -0.136
AGAACTTG | inactive: 0.105
AATGGCTG | inactive: -0.0521
GTAGCTTA | inactive: 0.0877
CATCCTCC | inactive: -0.00134
CGCGGCCA | inactive: -0.26
ACAAGAAC | active: 0.316
GAGGTAAC | inactive: 0.0556
TATCTACA | ≥ 0.29
CCGCCATC | inactive: -0.174
CTAATCAG | inactive: 0.0548
ACGGGGCT | inactive: -0.163
CAGCACAA | inactive: 0.0492
GTTGATTA | inactive: 0.212
AACCGCAC | inactive: -0.00966
CACCGAGA | inactive: -0.0703
CCAACTGC | inactive: -0.211
AAGCGGGA | inactive: -0.119
ACAGCGGA | inactive: 0.0482

Sequence | PBM E-score
AGATACAA | inactive: 0.296
GGGTCAGA | inactive: -0.221
CTCTACAA | inactive: 0.204
GAGCATGC | inactive: 0.0543
AGCATATA | inactive: 0.119
AGCGGCGG | inactive: -0.225
TTATATAA | inactive: 0.102
CATCATTA | inactive: 0.107
CACAATGG | inactive: 0.0289
ACATGAAG | inactive: 0.293
CCTTGATC | inactive: -0.0434
CGCCCCAG | inactive: -0.238
ATTTGCAC | inactive: 0.0191
CAGCTTAG | inactive: -0.096
ATTTTGTG | inactive: 0.0933
ACCCGCAT | inactive: 0.00073
GGCGTCAA | inactive: -0.034
GCCCGCCA | inactive: -0.248
CCACAGCG | inactive: -0.0529
CATAAACG | inactive: 0.121
ACACATCG | inactive: 0.156
ATAACGGC | inactive: -0.027
CTGTCGCA | inactive: -0.00227
ACCAGAAT | inactive: 0.0975
ATTGCTTA | inactive: 0.106

Sequence | PBM E-score
GAGTAAGC | inactive: -0.0782
ATACTCAC | inactive: 0.16
ATGAGGGG | ≥ -0.0196
CGTACATC | inactive: 0.263
CCGGATTA | inactive: 0.0118
AGCGGACC | inactive: -0.25
GGTGCTAC | inactive: -0.00473
GCACATGC | inactive: -0.0345
GATTAGAC | inactive: 0.117
TACATGCA | active: 0.371
AACGAATC | ≥ 0.0936
ATTGGTAC | inactive: 0.172
TACTCAAA | inactive: 0.0329
CCGTGTTC | active: ≥ 0.382
CCAGCCTA | inactive: -0.225
ACCGATCA | ≥ 0.049
ACTTTGCA | inactive: 0.0222
AATTGTTA | inactive: 0.188
CAATAAAC | inactive: 0.0372
AACCCCGC | inactive: -0.188
CAAAAACA | inactive: 0.206
AATGCTCG | inactive: 0.0913
ACCCAACT | inactive: -0.0182
ACGATATC | inactive: 0.133
GATTGAAC | inactive: 0.131

Sequence | PBM E-score
CCCTTCCA | inactive: -0.158
ACTGTTCC | inactive: 0.0346
TAGATGCA | ≥ 0.0765
ACATATCC | inactive: 0.264
AAGTTAAT | inactive: 0.106
AGCTTTGC | inactive: -0.178
AAATTGTC | inactive: 0.106
AAGTCCCG | inactive: -0.106
ACGAGAAA | inactive: 0.0689
TCTCGAAA | inactive: -0.0351
GGTGGAAC | inactive: -0.00718
CGGGCTAG | inactive: -0.19
AACAGCGG | inactive: 0.00789
ACGTTACA | inactive: 0.282
TGCGGAAA | inactive: -0.035
AGTCGCGG | inactive: -0.153
CACTAGAG | inactive: -0.115
CACAAAGC | inactive: 0.054
AATAGAAA | inactive: 0.107
CAATTGCA | inactive: 0.0985
ACGGACGT | inactive: -0.0548
GTCCGCAC | inactive: -0.0799
AGGCGTAG | inactive: -0.21
CCCGACCA | inactive: -0.0955
CGCTCGGC | inactive: -0.246

Sequence | PBM E-score
CAGTGGAG | inactive: -0.129
CGGCTTCA | inactive: -0.102
ATGTGCGC | inactive: -0.0217
CACTTGCG | inactive: -0.118
ACAAGCAG | inactive: 0.229
CAGTGAGG | inactive: -0.192
GGTTCGAA | inactive: -0.0268
CCTCTCAA | inactive: -0.0881
CCCCGCAA | inactive: -0.116
CCACCTTC | inactive: -0.0586
AAATCTCG | inactive: -0.0141
TCAGGGGA | inactive: -0.0695
CGGATTTC | inactive: -0.114
CAGGAGTA | inactive: 0.0358
GAACCCTA | inactive: -0.00413
AGAGTTTC | inactive: -0.112
TCTGTCCA | inactive: 0.12
AGTCCCAT | inactive: 0.026
CTTCATCC | inactive: -0.145
CGGCCTTA | inactive: -0.103
ACAAGTGC | inactive: 0.255
CTCGAGCA | inactive: 0.0323
AGAATCAT | ≥ 0.136
ATTGGTAA | inactive: 0.0534
GCGTGGCC | inactive: -0.262

Sequence | PBM E-score
AGCGATGC | inactive: -0.112
AAACCAGA | inactive: 0.123
ACGGGGAA | inactive: -0.0432
AACACCCT | inactive: 0.168
ACAGATGA | inactive: 0.139
ACGGAATG | inactive: 0.0231
ACACCTAA | inactive: 0.165
AGCGGTTC | inactive: -0.0923
CCAGTGTC | inactive: 0.122
GGACTGAA | ≥ 0.0183
AATCCGAT | inactive: 0.101
CAGAAACA | inactive: 0.165
GCAAACTA | inactive: 0.139
ATTCATCG | inactive: 0.0244
ACACTGAG | inactive: 0.0672
CGTGCCGC | inactive: -0.179
ACTTGAAG | inactive: 0.044
CAAAACGG | inactive: 0.016
AAACCGAC | inactive: 0.084
GCTCTTCC | inactive: -0.141
CCTAACCG | inactive: -0.141
ATCTCTGA | inactive: 0.0832
ACACATAC | inactive: 0.295
AAAGTGGT | inactive: 0.0391
ATCAAGCC | inactive: -0.00515

Sequence | PBM E-score
CTAAATGA | inactive: 0.0613
CCGCGGGC | inactive: -0.221
AAGCCCTC | inactive: -0.186
TCATAAAA | inactive: 0.128
CCACTTGA | inactive: -0.0675
ACAGTCTA | ≥ 0.0542
TAGCACTA | inactive: 0.026
GGTCAGTA | inactive: -0.0607
GGATGCCA | inactive: -0.0361
GGGAATAC | inactive: 0.118
GCTATTAC | inactive: 0.122
CGAGGGGA | inactive: -0.12
CGTTAATC | inactive: 0.0673
ATCCCCCG | ≥ -0.172
CTAAACAA | inactive: 0.187
ACCAACCT | inactive: -0.00644
GGTGATAA | inactive: 0.0536
CGGGGCTC | inactive: -0.266
AGGTAAAT | inactive: 0.153
AAATCCGG | inactive: -0.169
GGGAAACC | inactive: -0.0751
GAACCGAA | inactive: 0.0299
GTGAAAAC | inactive: -0.00518
AGCGAAGC | inactive: -0.124
CAAAAGCA | inactive: 0.05

Sequence | PBM E-score
AAGTTGAC | inactive: 0.0758
ACAGCGCT | inactive: 0.0486
GGAGCAAC | inactive: -0.0648
CATCACCC | inactive: -0.149
AACTTACG | inactive: 0.104
CAGGAAAC | inactive: 0.0685
CCGAGACC | inactive: -0.145
GTACTATA | inactive: 0.232
TTAATCAA | inactive: 0.198
AATACCGG | inactive: 0.0508
ATCGTATC | inactive: 0.0713
GCAAGAAA | inactive: -0.093
AACTGCCG | inactive: -0.127
CCGAGACG | inactive: -0.0572
CGCAAGAA | inactive: -0.136
CGCCGCTA | inactive: -0.196
AGTGCCCA | ≥ -0.0344
GATGGCAA | inactive: 0.0182
GGACGGAC | inactive: -0.0992
AGTCCTTG | inactive: 0.0158
GCAGGGCC | inactive: -0.272
AACGGTCA | inactive: -0.00424
CATGGGAC | inactive: 0.151
GCACAGTA | inactive: -0.0165
CGACTTTC | inactive: -0.153
